Measurements as given in PubChem BioAssay AID624296 (National Center for Advancing Translational Sciences (NCATS), 2012).
Among all 350,000 compounds or so, about 9,900 (2.8%) were called active. The shares of active, inactive and inconclusive entries below differ from those in the screen. Calls follow the shape of the dose curve; as a rule, active = well fitted activation curve with a large enough effect; inconclusive = small, poorly fitted or top-dose-only effect; inactive = no such curve, though single readings can be large or run the other way. No potency is given beside an inconclusive call; the fits are too rough.

assay: A quantitative high throughput screen for small molecules that induce DNA re-replication in MCF 10a normal breast cells.; also: nearly all actives have a fitted effect of over 50% in size; details: MCF 10A DNA re-replication, Hoechst nuclear intensity, 48 h; series mostly up to 46.1 µM
Potency is read from the fitted curve at half-maximal effect; tags tell the direction and shape of the fitted curve.

SMILES | Potency
CCCCCn1c(=O)[nH]c2cc(C(=O)N3CCN(Cc4ccc5c(c4)OCO5)CC3)ccc2c1=O | inactive
O=c1[nH]c(=O)n(Cc2ccccc2)c2nc(-c3cccs3)n(CCO)c12 | inconclusive [activator, single point]
Nc1nc(CN2CCN(Cc3ccc4c(c3)OCO4)CC2)nc(Nc2ccccc2)n1 | inconclusive [activator, partial curve, poor fit]
CSc1ccccc1NC(=O)C(=O)c1c[nH]c2ccccc12 | inconclusive [activator, single point]
O=C(COc1coc(CN2CCc3ccccc3C2)cc1=O)Nc1cccc(Cl)c1 | inconclusive [activator, partial curve]
CCOC(=O)c1ccc2nc(NC(=O)c3cccs3)sc2c1 | inconclusive [activator, single point]
c1ccc2c(c1)C(=NC1CCCCC1)NC2=NC1CCCCC1 | inconclusive [activator, partial curve, poor fit]
O=C(c1ccccc1Nc1ccc(SC(F)F)cc1)N1CCCCCC1 | inconclusive [activator, single point]
CCCOc1ccc2[nH]c(C(=O)N/N=C/c3cc(OC)c(OC)c(OC)c3)cc2c1 | inconclusive [activator, single point]
COC(=O)C1=C(C)N(c2cc(C)cc(C)c2)/C(=C/c2ccc(O)cc2)C1=O | inconclusive [activator, partial curve, poor fit]
N#Cc1ccsc1NC(=O)CN1CCCCCC1 | inactive
CCCCCCC#Cc1cncc(C(=O)NNC(=O)Nc2cc(Cl)cc(Cl)c2)c1 | inactive
Cc1cccc(Nc2nc(-c3ccncc3)cs2)c1 | inconclusive [activator, single point]
Cc1nc(-c2ccc(F)cc2)c(CC(=O)N2CCN(S(=O)(=O)c3cccc(F)c3)CC2)s1 | inactive
Oc1ccccc1C1SC(c2ccccc2O)SC(c2ccccc2O)S1 (centres undefined) | active: 6.51 µM
CCOc1c(Br)cc(/C=C2\C(=O)N(CCC#N)N=C2C)cc1OC | inconclusive [activator, full curve, poor fit]
CC(C)OC(=O)c1c(NC(=O)c2cccs2)sc2c1CCCC2 | active: 16.4 µM
Cc1ccc(S(=O)(=O)CC(C)N2CCOCC2)c(S(=O)(=O)CC(C)N2CCOCC2)c1 (centres undefined) | inactive
CCN(c1ccccc1)S(=O)(=O)c1ccc(C(=O)NNC(=O)c2ccccc2F)cc1 | inconclusive [activator, single point]
COCCSc1ccccc1C(=O)N1CCC(Cc2ccccc2)CC1 | inconclusive [activator, single point]
O=C(/C=C/c1ccc(Cl)cc1Cl)Nc1cccc(S(=O)(=O)NC2=NCCCCC2)c1 | inconclusive [activator, partial curve, poor fit]
CC(C)(C)C(=O)Nc1cc(S(=O)(=O)Nc2ccc(Cl)cc2)ccc1Cl | inconclusive [activator, single point]
CN(C(=S)NC(=O)CCCOc1ccc(Cl)cc1Cl)c1ccccc1 | inactive

SMILES | Potency
CCOC(=O)C(=Cc1cc(=O)c(OC)co1)C(=O)OCC | active: 1.64 µM
CCNc1nc(SC(C(C)=O)C(C)=O)nc(N(C)C)n1 | inactive
Cc1ccc(C)c(S(=O)(=O)N2CCCOC2CNC(=O)C(=O)NCCC2=CCCCC2)c1 (centres undefined) | inactive
O=C(Nc1ccc2c(c1)nc1n2CCN(Cc2ccccc2)C1)NC1CCCCC1 | inactive
COC(=O)c1ccccc1NC(=O)c1cc[n+]([O-])cc1 | inconclusive [activator, single point]
C=CCN1C(=O)C(CC(=O)Nc2ccc(OCCC)cc2)N(CCCN2CCN(Cc3ccccc3)CC2)C1=S (centres undefined) | inconclusive [activator, single point]
O=C(/C=C/c1ccccc1)OCc1ccccc1 | inactive
COc1ccc(C(=O)Cn2c(C(=O)/C=C/c3ccccc3)nc3ccccc32)cc1 | inconclusive [activator, partial curve, poor fit]
O=C(CN1CCN(Cc2ccc3c(c2)OCO3)CC1)N1c2ccccc2Sc2ccccc21 | inconclusive [activator, single point]
COc1ccc(NC(=O)C2CCCN2C(=O)OCc2ccccc2)cc1 (centres undefined) | inactive
CCOC(=O)C1=C(C)NC(C)=C(C(=O)OCC)C1c1ccc([N+](=O)[O-])s1 | inconclusive [activator, partial curve, poor fit]
COc1cc(OC)cc(C(=O)NCc2ccc(-n3cccc3)cc2)c1 | inconclusive [activator, single point]
COc1ccc(CN2CCC(c3nc4ccc(Cl)cc4[nH]3)CC2)cc1 | inconclusive [activator, single point]
CC(C)C[C@@H](CNCC(=O)[C@H](Cc1c[nH]c2ccccc12)NC(=O)c1[nH]cnc1C(=O)N[C@H](CN)CC(C)C)NC(=O)c1nc[nH]c1C(=O)N[C@@H](CC(=O)O)C(=O)O | inconclusive [activator, full curve, poor fit]
NNc1nc2sc3c(c2c(=O)n1-c1ccccc1)CCCC3 | inconclusive [activator, single point]
Cc1nc2c(c(N3CCOCC3)n1)OCC(=O)N2 | inactive
COc1ccc(NC2CCCN(C(=O)CSc3ccccc3)C2)cc1OC (centres undefined) | inactive
O=C(c1cc2cc(F)ccc2[nH]1)N1CCN(c2cccc(Cl)c2)CC1 | inconclusive [activator, single point]
O=C(N/N=C/c1ccc([N+](=O)[O-])o1)C(O)c1ccccc1 (centres undefined) | active: 11.6 µM
COc1ccccc1C(CNC(=O)c1ccc(OCc2c(C)noc2C)cc1)N1CCCC1 (centres undefined) | inconclusive [activator, single point]
COc1cccc(-c2nn(-c3ccc(C)cc3)cc2C(=O)N2CCc3cc(OC)c(OC)cc3C2)c1 | inconclusive [activator, partial curve, poor fit]
O=C(COC(=O)CNS(=O)(=O)c1cccc(Br)c1)NC(=O)Nc1ccc2c(c1)OCCO2 | inactive
COc1cc(OC)c(C(=O)N(CCc2ccccc2)Cc2ccccc2)cc1OC | inactive

SMILES | Potency
O=C(COS(=O)c1ccccc1)Nc1cc(Cl)ccc1N1CCOCC1 (centres undefined) | inactive
CS(=O)(=O)c1ccc(Cl)c(NC(=O)Nc2ccccc2)c1 | inactive
COc1cc(C(=O)NC(=S)Nc2ccc(Cl)cn2)cc(OC)c1OC | inconclusive [activator, partial curve, poor fit]
Cc1ccc(NC(=O)C(NC2CCCc3ccccc32)c2ccccc2)cc1Cl (centres undefined) | active: 1.3 µM
CCCCC(=O)Nc1nc2c(OC)ccc(OC)c2s1 | inactive
Cc1nc2c(C)cccn2c1/C(O)=C1\C(=O)C(=O)N(CCN2CCOCC2)C1c1cccs1 (centres undefined) | inconclusive [activator, partial curve, poor fit]
CN(c1cccc(NC(=O)Nc2ccc(Cl)cc2)c1)S(C)(=O)=O | active: 13 µM
COc1ccc(-n2cc(CN(C)CCO)c(-c3cccc(F)c3)n2)cc1 | inactive
Cc1nc(-c2ccccc2)nc2n[nH]c(N)c12 | inconclusive [activator, full curve]
COc1cc(/C=C2\SC(=S)N(C(C(=O)O)c3ccccc3)C2=O)cc(OC)c1OC (centres undefined) | inconclusive [activator, partial curve, poor fit]
Cc1[nH]c2ccccc2c1C(=O)C(=O)N1CC=C(c2ccccc2)CC1 | inconclusive [activator, single point]
O=C(/C=C/c1ccc(O)cc1)c1ccccc1 | inconclusive [activator, single point]
O=C(CCC(=O)c1ccc(F)cc1)Nc1cccc(Br)c1 | inactive
CC1CCN(C(=O)C(C)Sc2nc(-c3ccccc3)cc(C(F)(F)F)n2)CC1 (centres undefined) | inconclusive [activator, partial curve]
COC(=O)CCC(=O)Nc1ccc(Cl)c(Cl)c1 | inactive
COc1ccc(NS(=O)(=O)c2ccc(C)c(C(=O)NCC(c3ccco3)N3CCCCC3)c2)cc1 (centres undefined) | inconclusive [activator, full curve, poor fit]
CCS(=O)(=O)Nc1cc2c3c(c1)CCN3C(=O)CC2 | inactive
O=c1[nH]c2c(cnn2-c2ccc(Cl)cc2)c(=O)n1-c1cccc(Cl)c1 | inactive
Cc1ccc(C(=O)COC(=O)c2cc(Cl)ccc2O)cc1[N+](=O)[O-] | inconclusive [activator, single point]
COc1ccc(/C=C2/SC(=O)N(CCCCCC(=O)Nc3ccccc3C(=O)O)C2=S)cc1 | inconclusive [activator, full curve]
CCC1Oc2ccc(C)cc2N(CC(=O)N(Cc2ccc(C)o2)C2CCCC2)C1=O (centres undefined) | inconclusive [activator, single point]
COc1cc2c(cc1OC)CN(c1nc(CN3CCOCC3)nc3sc4c(c13)CCC(C)C4)CC2 (centres undefined) | inconclusive [activator, single point]
CCOC(=O)c1cc2cc(-c3c(C(=O)OCC)oc4cc(O)cc(O)c4c3=O)ccc2o1 | inconclusive [activator, partial curve, poor fit]
